Results taken from PubChem BioAssay AID1508624 (National Center for Advancing Translational Sciences (NCATS), 2021).
Screen size: about 48,000 compounds; about 120 (0.25%) were called active. Another 4% or so got no clear call; they are omitted. Calls come from the whole dose curve; as a rule, active = well fitted activation curve with a large enough effect; inconclusive = small, poorly fitted or top-dose-only effect, or another doubt; inactive = no such curve, though single readings can be large or run the other way. Some of the results follow.

Experiment: Primary qHTS for Identification of Small Molecule Activators of Huntingtin-Antisense Promoter Activity; note: nearly all actives have a fitted effect of over 55% in size
Details: HEK293 HTT-AS promoter firefly luciferase reporter (activity 0% = vehicle and -100% = no light), 24 h; series mostly up to 57.5 µM; activity change, positive = activation: at the top concentration
In short: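 Quantitative HTS used concentration series of up to 57.5 uM final on HEK293 luciferase reporter cells, 24 h at 37 degrees C. Readout was Dual-Glo firefly luminescence.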

Activity change, positive = activation, inactive:
Cc1ccccc1CNC(=O)c1ccc2nc(SCc3ccc(F)cc3)n(C)c2c1 -26.2%, CCOCCCNC(=O)C(c1ccccc1)N(Cc1ccc2c(c1)OCO2)C(=O)c1ccc(NC(C)=O)cc1 (centres undefined) -3.63%, Cc1ccccc1CN1C(=O)c2ccccc2S(=O)c2ccc(C(=O)NCc3ccc(Cl)cc3)cc21 (centres undefined) -12.5%, CCC(=O)C1=C(c2ccc(F)cc2)N(C(=O)CC)n2cnnc2S1 -8.25%, CCCOc1ccc(-c2cccc(NS(=O)(=O)c3ccccc3)c2)nn1 -27.3%, Cc1ccc2cccc(NC(=O)c3ccc(OC(C)C)cc3)c2n1 -16.5%, CCc1ccccc1NC(=O)CN(c1ccccc1)S(=O)(=O)c1ccsc1C(=O)OC -29.3%, O=C(NCc1ccc2c(c1)OCO2)c1ccc2c(c1)N(Cc1ccccc1F)C(=O)c1ccccc1S2 -11.9%, COc1ccccc1CNC(=O)CC(c1ccc(C)cc1)N1Cc2ccccc2C1=O (centres undefined) -24%, COc1ccc(CCNC(=O)CCS(=O)(=O)c2cc(Br)cc3c2N(C(C)=O)CC3)cc1OC -17.5%, Cc1cc(C)cc(-n2ccn(Cc3ccccc3C)c(=O)c2=O)c1 -2.47%, COc1ccc2c(c1)Cc1sc(NC(=O)c3cccc(C)c3)nc1-2 -5.74%, COC(=O)CSc1nc2sc3c(c2c(=O)n1-c1ccccc1C)CC(C)(C)OC3 -3.51%, CCc1ccc(NS(=O)(=O)c2cc(-c3cnc(C4CC4)o3)ccc2C)cc1 -36.2%, Cc1ccc(OCC(=O)OC2=C(C(=O)c3ccccc3)N(C)S(=O)(=O)c3ccccc32)cc1 -21.4%, Cc1oc(-c2ccc(C(=O)NCCC(C)C)cc2)nc1CN1CCc2ccccc21 -46.5%, COc1ccccc1CNS(=O)(=O)c1ccc(-c2cnc(C3CC3)o2)cc1 -36.8%, COCCNC(=O)c1c[nH]c2ccc(S(=O)(=O)Nc3ccc(F)cc3F)cc2c1=O 0.192%, Cn1ccc2c(OCC(=O)NCc3ccccc3)cccc2c1=O -21.1%, CC(C)c1nn2c(=O)cc(COC(=O)c3cccc(NC(=O)c4cccs4)c3)nc2s1 -8.57%, CCc1ccc(C2=NN(CCC(=O)NCCc3ccc(OC)c(OC)c3)C(=O)CC2)cc1 -14.6%, CCCOc1ccc(-c2nonc2NC(=O)c2cc(OC)c(OC)c(OC)c2)cc1OCCC -23.7%, Cc1ccc(N2CC(NC(=O)c3cc4ccccc4o3)CC2=O)cc1C (centres undefined) -11.6%, CCc1ccccc1NC(=O)CCOc1ccccc1 -21.2%, CCc1ccccc1NC(=O)Cn1c(=O)n(-c2ccc(CC(=O)NCC3CCCO3)cc2)c(=O)c2ccccc21 (centres undefined) -14.8%, COc1ccc(CSc2nc3ccncc3n2CC(=O)Nc2ccc(C)c(F)c2)cc1 18.9%, COc1ccc(CNC(=O)c2ccc3c(c2)N(Cc2ccc(C)cc2)CCS3)cc1 -19.7%, CCOC(=O)c1cnc2nc(NCc3cccc(Br)c3)[nH]n2c1=O -18.8%, Cc1ccc(Nc2c(-c3ccsc3)nc3c(C)cccn23)cc1 22.5%, COc1ccccc1CNC(=O)Cn1ncn2c(cc3sccc32)c1=O -7.5%, COc1ccc(S(=O)(=O)NCc2cccn2Cc2cccc(C)c2)cc1 -10%, COc1ccccc1NC(=O)CC(c1cc(OC)c(OC)c(OC)c1)N1Cc2ccccc2C1=O (centres undefined) -14.2%, CCCCCSc1nc2sc3c(c2c(=O)n1-c1ccc(OC)cc1)CCN(C(C)=O)C3 -47.8%, Cc1c(C)n(C)c2ccc(C(=O)NCc3cccc(F)c3)cc12 -3.6%, CCOC(=O)CSc1nnc2n(-c3ccccc3)c(=O)c3c4c(sc3n12)CC(C(C)(C)C)CC4 (centres undefined) -4.64%, COc1cc2c(cc1NC(=O)COc1ccc(Cl)cc1Br)oc1ccccc12 16.1%, O=S(=O)(Nc1cccc(C(F)(F)F)c1)c1ccc(-c2cnc(C3CC3)o2)cc1 -49.8%, COc1ccc(S(=O)(=O)c2c(C(=O)c3ccc(C)c(C)c3)cnc3ccc(F)cc23)cc1 -63.8%, CC(C)c1ccc(OCC(=O)Nc2c(C(=O)c3ccc(F)cc3)oc3ccccc23)cc1 -12%, O=C(CN1CCSc2ccccc21)N1CCN(c2ccc(F)cc2)CC1 -23.5%, CCCN(Cc1cccs1)C(=O)Nc1cc(OC)ccc1OC -10.7%, Cc1ccc(N(C)C(=O)c2cc(S(=O)(=O)N3CCOCC3)cn2C)cc1 -14.6%, COc1ccc(CCNC(=O)CCCCn2c(=O)c3ccccc3n(Cc3ccccc3Cl)c2=O)cc1OC -20.3%, COc1ccccc1-c1noc(CCCC(=O)Nc2cc(C)ccc2C)n1 -14.1%, COc1ccc(C(=O)Nc2ccc(C(=O)OCc3cc(=O)n4nc(C5CC5)sc4n3)cc2)cc1 0%, Cc1ccc(-n2nc3c(N4CCC(C(=O)NCc5ccccc5Cl)CC4)nnc(C)c3c2C)cc1 -13.8%, CCOC(=O)c1c(C)[nH]c(C)c1S(=O)(=O)NCC(=O)N1CCN(c2ccccc2OC)CC1 10.6%, COc1ccc(OC)c(S(=O)(=O)NCCc2csc(-c3cccc(F)c3)n2)c1 3.21%, CCN(CC)C(=O)Nc1ccc2c(c1)N(Cc1ccccc1)C(=O)c1ccccc1S2 -12.9%, Cc1cc(=O)c2cc(C(=O)Nc3ccccc3C)ccc2[nH]1 -8.63%, CCOc1ccc(CNC(=O)CCCc2cn(C)c3ccccc23)cc1OC -27.7%, COC(=O)c1cc2sc(Cl)cc2n1Cc1cc(C)ccc1C 15.5%, Cc1ccc(-n2nc3c(=O)n(CC(=O)NCC(C)c4ccccc4)nc(C)c3c2C)cc1 (centres undefined) -43.7%, COc1ccc(Cn2ccc3nc(C)c(C(=O)NCc4cccc(OC)c4)cc3c2=O)cc1 -13.7%, CCc1ccccc1NC(=O)Cn1c2ncccc2c(=O)n1-c1ccccc1 -23.3%, COc1cc(F)c(S(=O)(=O)Nc2c(C)n(C)n(-c3ccccc3)c2=O)cc1OC 5.4%, COC(=O)c1ccc(CSc2nnc3ccc4ccccc4n23)cc1 8.67%, COc1ccccc1Cn1cc(C(=O)c2ccc(C)cc2)c(=O)c2cc3c(cc21)OCCO3 -33.2%, CCn1cc2c(n1)-c1c(oc(C(=O)Nc3cccc(C(F)(F)F)c3)c1C)CC2 4.15%, Cc1ccc(-n2c(=O)c3cccnc3n2CC(=O)Nc2cc(Cl)ccc2C)cc1 -5.62%, O=c1cc(-c2ccccc2)n2c(SCc3c(F)cccc3Cl)nnc2[nH]1 9.97%, Cc1ccc(NC(=O)CN(C)S(=O)(=O)c2cnc[nH]2)cc1 2.63%, Cc1ccc(C)c(CN2C(=O)c3ccccc3S(=O)c3ccc(C(=O)N4CCN(c5cccc(Cl)c5)CC4)cc32)c1 (centres undefined) -23.9%, Cc1ccc(NC(=O)Cn2c(=O)n(CCCCC(=O)NCc3ccccc3Cl)c(=O)c3ccccc32)cc1 -9.58%, COc1ccccc1OCC(=O)NCC(c1ccc(Cl)cc1)N1CCOCC1 (centres undefined) -14.4%, CCCc1nn2c(=O)cc(COc3ccc(/C=C(\C#N)C(=O)Nc4ccccc4)cc3)nc2s1 -4.97%, COc1ccc(C(CC(=O)NCc2ccccc2Cl)N2Cc3ccccc3C2=O)cc1OC (centres undefined) -10.8%, CC(C)CC(=O)NC1(C(F)(F)F)C(=O)Nc2c1c(=O)[nH]c(=O)n2-c1ccccc1 (centres undefined) -1.29%, CCc1cccc(C)c1NC(=O)CN1CCCN(Cc2ccccc2Cl)S1(=O)=O -33.4%, COc1cc(C(=O)NC(c2ccc(Cl)cc2)c2cc(Cl)c3cccnc3c2O)cc(OC)c1OC (centres undefined) -60.8%, CCOc1ccccc1NC(=O)C(CC)n1c(C(=O)OC)cc2occc21 (centres undefined) -13.4%, COc1cc(C2c3c(-c4ccccc4O)n[nH]c3C(=O)N2Cc2ccco2)ccc1OCC(C)C (centres undefined) -21.3%, COc1ccc(Nc2oc(/C=C/c3cccc(OC)c3)nc2C#N)cc1 21.9%, CCCn1c(=NC(=O)c2cc3ccccc3o2)c(C(=O)OCC)cc2c(=O)n3ccccc3nc21 0.647%, O=C(Cn1ncc2ccsc2c1=O)N1CCN(c2ccccc2F)CC1 -9.79%, CCCCN(CC)CCNC(=O)C1CCCN(S(=O)(=O)c2cccc3nsnc23)C1 (centres undefined) 8.24%, O=S(=O)(c1ccc(-n2cnnn2)cc1)N1CCN(c2cccc(Cl)c2)CC1 -20.1%, Cc1c(C(=O)N2CCCCCC2)c(S(=O)(=O)N(Cc2ccccc2)C(C)(C)C)c(C)n1C -11.8%, CCOc1ccc(CN(C(=O)c2cc(=O)c3cc(C)cc(C)c3o2)C2CCS(=O)(=O)C2)cc1 (centres undefined) -6.58%, COc1cc(NC(=O)CCc2c(C)nc3cc(-c4ccccc4)nn3c2C)cc(OC)c1OC -69.4%, Cc1ccc2c(c1)c(=O)c(C(=O)c1ccc3c(c1)OCO3)cn2Cc1ccc(Cl)cc1 -33%, CSc1ccc(/C=C/c2nc3ccccc3n2S(=O)(=O)c2cccc(Cl)c2)cc1 -70.3%, CCC(CC)C(=O)Nc1nnc(SCc2cc(=O)n3cccc(C)c3n2)s1 -37.4%, NC(=O)CC[C@@H]1NC(=O)[C@H](Cc2ccccc2)NC(=O)[C@H](Cc2ccc(O)cc2)NC(=O)CCSSC[C@@H](C(=O)N2CCC[C@H]2C(=O)N[C@@H](CCCN=C(N)N)C(=O)NCC(N)=O)NC(=O)[C@H](CC(N)=O)NC1=O -7.58%, CCOc1ccc(CN2C(=O)c3ccccc3Sc3ccc(C(=O)O)cc32)cc1 -25.8%, O=C(NCCc1ccc(Cl)cc1)C(=O)NCC(c1ccco1)S(=O)(=O)c1ccc(Cl)cc1 (centres undefined) -25.7%, Cc1oc2ncnc(N3CCCCC3)c2c1C(=O)N1CCN(c2cccc(Cl)c2)CC1 -18.8%, CCCN1C(=O)C2(c3ccccc31)c1c(oc3ccc(F)cc3c1=O)C(=O)N2CCCOC(C)C (centres undefined) -12.6%, c1coc(-c2nc3n(n2)C2(CCCCC2)[C@@H]2CCCC[C@@H]2N3)c1 19%, CCc1nonc1NC(=O)c1oc2ccc(Br)cc2c1C 10.4%, CCc1ccc(-n2c(=O)c3c4c(sc3n(CC(=O)N3CCC(C)CC3)c2=O)CCC4)cc1 -22.9%, Cc1ccc(NC(=O)C2CCCN(S(=O)(=O)c3cccc4cccnc34)C2)cc1 (centres undefined) -23.7%, Cc1ccc(Cl)cc1NC(=O)c1oc2ccc(S(=O)(=O)N3CCCCC3)cc2c1C 0.744%, CCOC(=O)c1ccc(NC(=O)CSc2cc(=O)n(CC)c3ccccc23)cc1 -0.119%
